The text below walks through data of article PMC6212790.

The other results are listed elsewhere or left out. At the low end of the ranking the order means little.

In the experiment the target is T1, GST-Rok (full length) (UniProt O34857).
T1 sequence: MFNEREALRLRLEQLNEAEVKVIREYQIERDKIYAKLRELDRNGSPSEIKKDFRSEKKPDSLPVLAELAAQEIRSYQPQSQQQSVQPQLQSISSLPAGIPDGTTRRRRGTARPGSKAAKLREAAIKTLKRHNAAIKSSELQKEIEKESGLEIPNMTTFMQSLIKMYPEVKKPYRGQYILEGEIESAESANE
Kind of experiment: protein binding microarray.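 Note: rank score from −0.5 (least bound) to 0.5 (best bound).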 Conditions: Rok is a gene silencer of Bacillus subtilis; high values mean tight binding; most listed sequences are background and not binding sites; double strand, one strand shown.
In turn, AACTAGCT registered a binding signal of 0.317 E-score.

On to ACTCCCAT, for which the binding signal was -0.17 E-score.

In the case of CATGTCGA, the binding signal stood at 0.135 E-score.

Turning to GATCATGA, the binding signal was 0.0532 E-score.

In turn, AACATTGG displayed a binding signal of 0.058 E-score.

For the sequence ACCGCCGT, the binding signal is -0.0488 E-score.

GCAATTCA displayed a binding signal of 0.00634 E-score.

AGCGGAGG: the binding signal was -0.254 E-score.

With CCTTGACC, the binding signal is -0.0779 E-score.

For the sequence GCTGATAC, the binding signal was -0.0816 E-score.

As to CCACAAGA, the binding signal was -0.0615 E-score.

GCACTTCC: the binding signal is -0.081 E-score.

Consider ACGGGTGG, for which the binding signal was -0.0585 E-score.

CGGCAAAC showed a binding signal of 0.138 E-score.

TATAATAA had a binding signal of 0.33 E-score.

For AGTCGCCC, the binding signal was -0.219 E-score.

On to GGTGTCAC, for which the binding signal was -0.0752 E-score.

On to ACTGAAGC, for which the binding signal is -0.0066 E-score.

Take CACTAGGC: the binding signal was -0.166 E-score.

Turning to CACGACTA, the binding signal was -0.0277 E-score.

As to CTCAGTAC, the binding signal was -0.0326 E-score.

AATAAATA returned a binding signal of 0.345 E-score.

Sequence GATATACC returned a binding signal of 0.291 E-score.

Turning to CGAATTTC, the binding signal came out at 0.0633 E-score.

For the sequence GAGTCACA, the binding signal was -0.0916 E-score.

ATTGTAAC had a binding signal of 0.231 E-score.

For ACCGCGAG, the binding signal is -0.221 E-score.

ACAGAAAC registered a binding signal of 0.163 E-score.

As to ATGCATCC, the binding signal was -0.0683 E-score.

Turning to CATAGACC, the binding signal is -0.153 E-score.

As for AGTGTGGC, the binding signal is -0.24 E-score.

As for ACTCTCAA, the binding signal is -0.131 E-score.

Consider TTCCAGAA, for which the binding signal stood at 0.0972 E-score.

Turning to TCGGTGAA, the binding signal was -0.0505 E-score.

As to ATCCAAGA, the binding signal came to 0.0878 E-score.

GCTCTGCA: the binding signal is -0.148 E-score.

In the case of CCCTTACA, the binding signal is -0.136 E-score.

Turning to CAGGAGCG, the binding signal was -0.0647 E-score.

Take AACGCGGA: the binding signal is -0.00907 E-score.

Regarding GACCGAGC, the binding signal was -0.252 E-score.

Turning to CCCAGTCA, the binding signal was -0.201 E-score.

Regarding AACAAACG, the binding signal is -0.0135 E-score.

Consider ACCACCTA, for which the binding signal was 0.0972 E-score.

Turning to CAGGCGTC, the binding signal was -0.224 E-score.

Consider GTACTCTA, for which the binding signal is 0.207 E-score.

CACACCGC displayed a binding signal of 0.0286 E-score.

The sequence ATTTCGAA registered a binding signal of 0.251 E-score.

As for GCATGCAC, the binding signal was -0.0775 E-score.

Take CGCAGAAG: the binding signal was -0.158 E-score.

Turning to CGAGGGAA, the binding signal is -0.16 E-score.

For GCAGCTCC, the binding signal was -0.203 E-score.

For AGCAGTCG, the binding signal is -0.127 E-score.

Turning to AGTTCAAG, the binding signal is -0.0154 E-score.

For the sequence CCGGCTGA, the binding signal is -0.0957 E-score.

As for CCGCACAG, the binding signal was -0.299 E-score.

Sequence ATAGGTGA yielded a binding signal of 0.0572 E-score.

In the case of GGAAATCC, the binding signal is -0.213 E-score.

The sequence TAGTTTGA registered a binding signal of 0.347 E-score.

For the sequence GTGCTCGA, the binding signal is -0.205 E-score.

For ATTAGCAG, the binding signal was 0.186 E-score.

On to CATACGCA, for which the binding signal stood at 0.0888 E-score.

On to AGTCTACA, for which the binding signal came to 0.223 E-score.

As for AGGGCACT, the binding signal was -0.148 E-score.

On to ACGCCAGA, for which the binding signal is -0.147 E-score.

For AAATCCTT, the binding signal is -0.0579 E-score.

Consider CGATTAAG, for which the binding signal came out at 0.0852 E-score.

Sequence AAGAACTC gave a binding signal of 0.0264 E-score.

As to AGAGTGAA, the binding signal is -0.0866 E-score.

With CTCAACGC, the binding signal is -0.055 E-score.

Take GCTGGTCC: the binding signal is -0.17 E-score.

Turning to ACGGTTGG, the binding signal was -0.0465 E-score.

For AAGAGAAA, the binding signal was -0.0791 E-score.

Turning to GATGCAAA, the binding signal was -0.0054 E-score.

Regarding GTATGCCA, the binding signal worked out at 0.0606 E-score.

The sequence CGTTGTAA yielded a binding signal of 0.164 E-score.

Sequence AAACTCAC showed a binding signal of 0.0104 E-score.

AATGACAT showed a binding signal of 0.144 E-score.

For AATCGCAC, the binding signal is -0.0941 E-score.

In turn, TCTATACA had a binding signal of 0.216 E-score.

In the case of CAACTCGA, the binding signal was 0.159 E-score.

With GGATTACC, the binding signal is -0.101 E-score.

With CATCTAAC, the binding signal was found to be 0.031 E-score.

The sequence GGTAGTAA came in with a binding signal of 0.335 E-score.

Turning to CAGTTCAG, the binding signal was -0.197 E-score.

As to GTCCGCAC, the binding signal is -0.129 E-score.

For AAAGTGAG, the binding signal was -0.0263 E-score.

In turn, ACAGCATG showed a binding signal of 0.0491 E-score.

Regarding GGACAGAC, the binding signal is -0.252 E-score.

AGGTACAT yielded a binding signal of 0.182 E-score.

CTAGCTAC displayed a binding signal of 0.198 E-score.

Consider AGAGCTGC, for which the binding signal was -0.0428 E-score.

As to CCATCACG, the binding signal was -0.206 E-score.

With CACTGTCC, the binding signal is -0.117 E-score.

Take TGGAACAA: the binding signal is -0.0437 E-score.

GATTTGAA: the binding signal was determined as 0.0393 E-score.

Regarding GAGCTACC, the binding signal is 0.0563 E-score.

With TCCGCCAA, the binding signal is -0.313 E-score.

With TCAAAAAA, the binding signal was -0.0457 E-score.

In the case of GACCACTA, the binding signal is 0.0333 E-score.

In turn, CGTTATAA gave a binding signal of 0.173 E-score.

CCAGGTGA: the binding signal was -0.179 E-score.

Turning to AACTTCCT, the binding signal is -0.128 E-score.

As to CGGCCAAA, the binding signal was -0.00525 E-score.

Regarding AACAGATT, the binding signal turned out to be 0.0218 E-score.

In turn, CTATGAGA gave a binding signal of 0.0936 E-score.

CCTCAATA: the binding signal is -0.104 E-score.

As to GACGACCC, the binding signal is -0.304 E-score.

GTGCTCTA: the binding signal was -0.155 E-score.

As to ACAATCCA, the binding signal is -0.0266 E-score.

In turn, TACCACCA displayed a binding signal of 0.161 E-score.

On to AGTAGCCC, for which the binding signal was -0.206 E-score.

On to GTAATGCA, for which the binding signal came out at 0.0743 E-score.

Take CCTTCATA: the binding signal is -0.00231 E-score.

Take GTCTCTCA: the binding signal was -0.17 E-score.

With CTCTTACA, the binding signal is -0.0257 E-score.

The sequence AGTTTTAA yielded a binding signal of 0.165 E-score.

Turning to GCGCCTCA, the binding signal was -0.273 E-score.

CTTTAGCA: the binding signal came out at 0.00034 E-score.

Take AGCGCCCC: the binding signal is -0.293 E-score.

GCGGTCCC: the binding signal is -0.343 E-score.

GGAAGAAA returned a binding signal of 0.0818 E-score.

For the sequence ACGAGAGC, the binding signal is -0.0368 E-score.

TTCTTCAA: the binding signal was -0.0756 E-score.

For the sequence ACCTCCGT, the binding signal was -0.202 E-score.

CGACAGGA: the binding signal is -0.211 E-score.

Take TAAAGGTA: the binding signal stood at 0.156 E-score.

As for CCCGCTAG, the binding signal was -0.127 E-score.

Sequence CGCGTTAC registered a binding signal of 0.0686 E-score.

For AGCCCTAC, the binding signal is -0.0981 E-score.

Consider GCATCTGA, for which the binding signal is -0.151 E-score.

In the case of ACTTAAAC, the binding signal turned out to be 0.00251 E-score.

In the case of CGCAACGA, the binding signal is -0.0427 E-score.

On to CTTGAACC, for which the binding signal was -0.226 E-score.

AGATAACG had a binding signal of 0.225 E-score.

TAAGTAGA returned a binding signal of 0.305 E-score.

Take CCCGCGCG: the binding signal was -0.273 E-score.

Sequence TCCAAAAA yielded a binding signal of 0.0831 E-score.

Consider CTCGACCA, for which the binding signal was -0.0329 E-score.

On to CCTATGCA, for which the binding signal was -0.0718 E-score.

As for ACACCACC, the binding signal turned out to be 0.0301 E-score.

For the sequence ACGCAAAT, the binding signal came out at 0.0117 E-score.

AATCAAGG registered a binding signal of 0.119 E-score.

For the sequence CCCAAGCC, the binding signal is -0.364 E-score.

For ACTTGGTC, the binding signal is -0.00297 E-score.

TAACCGTA came in with a binding signal of 0.213 E-score.

Regarding AAGGCGAC, the binding signal is -0.246 E-score.

As to GAAAGATC, the binding signal was -0.0394 E-score.

ATGGCCAT displayed a binding signal of 0.00684 E-score.

Consider GCGGTCCA, for which the binding signal was -0.151 E-score.

CTTTTATC had a binding signal of 0.118 E-score.

As to ATACTGGG, the binding signal was 0.108 E-score.

Consider AAGGCCAT, for which the binding signal is -0.205 E-score.

With GGGAGGTA, the binding signal is -0.0191 E-score.

As for CTGTATTA, the binding signal stood at 0.235 E-score.

Take CAAGACTA: the binding signal was 0.156 E-score.

Sequence GATAACTA gave a binding signal of 0.222 E-score.

For ACATGAAA, the binding signal was found to be 0.0981 E-score.

In turn, AGATCAAA came in with a binding signal of 0.122 E-score.

As for AACTACGG, the binding signal was 0.204 E-score.

For the sequence ACCACAAA, the binding signal is 0.0984 E-score.

Sequence CATGTTAC came in with a binding signal of 0.198 E-score.

Regarding AACGCTCC, the binding signal was -0.107 E-score.

On to ACCATTAC, for which the binding signal is 0.253 E-score.

Turning to CTTGACCC, the binding signal is -0.171 E-score.

With ATTTAAGG, the binding signal is 0.0771 E-score.

Turning to ACAGTATC, the binding signal came to 0.217 E-score.

As to AATCTCTC, the binding signal is -0.109 E-score.

For TGATGAAA, the binding signal turned out to be 0.0174 E-score.

In the case of CTAGGTCC, the binding signal was -0.139 E-score.

On to GGTGACCA, for which the binding signal is -0.29 E-score.

For the sequence ACACGCCA, the binding signal is -0.0741 E-score.

Regarding CCGAGCGG, the binding signal was -0.285 E-score.
